Results taken from patent US20250127918A1, “SITE-SELECTIVE CONJUGATION OF A PHARMACEUTICAL AGENT TO AN ANTIBODY USING AN AFFINITY PEPTIDE” (priority 2023, published 2025).

What was measured:
Type in all cases: biochemical
[1] = target: T1, Trastuzumab (Homo sapiens, UniProt P01857, D239E/L241M); experiment: Conjugation of electrophile-attached Z33 reagents to trastuzumab, analyzed by SDS-PAGE; details: 24 h
T1 construct: purchased Syd Labs Inc; MedChemExpress LLC; Bio X Cell
Method: Determination by SDS-PAGE: Band densitometry was calculated using ImageJ software. Densitometry-based yields were calculated based on the product: starting material protein ratio in lanes and standardized based on molecular weight.
Reactions were performed on a 20 μL scale using 0.2 mL PCR tubes (FIG. 60). First, the electrophile-attached Z33 peptide reagent was dissolved in water to prepare a 1 mg/mL solution. […] The resulting reaction solution was quenched with a 100 mM glycine solution and analyzed by SDS-PAGE.
The reaction was performed on a 210 μL scale using a 1.5 mL microcentrifuge tube. First, PEL-09 was dissolved in water to prepare a 2 mg/mL solution. […] The reaction mixture was diluted to 400 μL with citrate buffer (100 mM, pH 2.7) and filtered through an Amicon® filter (0.5 mL, 50KMWCO) at 14000 ref for 7 minutes. After filtration, 400 μL of citrate buffer (100 mM, pH 2.68) was added and centrifuged again, followed by centrifugation with 400 μL of Tris (100 mM, pH 8.1) buffer (total of 3 centrifugations). Finally, the remaining solution (roughly 20 μL) on the Amicon® filter was transferred to a microcentrifuge tube, and the Amicon® filter was washed twice with 40 μL of Tris buffer (100 mM, pH 8.1). The obtained solution was analyzed by LC-MS (FIG. 49, Table 6) and SDS-PAGE (FIG. 50, Table 5).
The reaction solution corresponding to 3.5 μg of IgG was taken into a PCR tube and diluted with Tris buffer (100 mM, pH 8.1) to a final volume of 3 μL. Then, Laemmli sample buffer (BIO-RAD, 2×+5v/v % 2-mercaptoethanol, 3 μL) was added, and the mixture was heated at 70° C. for 5 minutes. After returning the reaction solution to room temperature, 2 μL was loaded onto an SDS-Gel. Subsequently, electrophoresis, washing, staining, and analysis were performed using the methods described in General Information Section.
The purified tirzepatide-transfer reagent was then evaluated for its reactivity against human IgG trastuzumab.

[2] = target: T1, Trastuzumab; experiment: Bioconjugation handle / GLP1 transfer to trastuzumab, analyzed by Q-ToF LC-MS; details: 100 mM HEPES pH8.7; large scale reaction for entry 15, room temperature, 24 h
Method: The conversion rate for each reaction was calculated by one of the following methods. Determination by LC-MS: Reported yields based on LC-MS spectra were determined by extracting the total ion current (TIC) spectra of all protein-containing species in the chromatogram utilizing Agilent MassHunter 6.0 software with BioConfirm package. These extracted chromatograms were deconvoluted utilizing a maximum entropy algorithm and abundance of each species determined using total ion count.
A reaction solution corresponding to 9.0 μg of IgG was taken into a PCR tube and diluted with Tris buffer (100 mM, pH 8.1) to a final volume of 6 μL. […] Afterward, DTT (200 mM in water, 2 μL) was added, and the mixture was further incubated at 37° C. for 1 hour. Finally, the solution was diluted to a volume of 40 μL with a mixture of water and acetonitrile (95:5), and 8 μL of the diluted solution was injected into LC-MS.
Reactions were performed on a 20 μL scale using 0.2 mL PCR tubes (FIG. 61). First, the electrophile-attached Z33 peptide reagent was dissolved in water to prepare a 2 mg/mL solution. […] The resulting reaction solution was quenched with a 100 mM glycine buffer of 100 mM Tris buffer and analyzed by LC-MS. […]
Reactions were performed on a 20 μL scale using 0.2 mL PCR tubes (FIG. 61). […] The resulting reaction solution was quenched with a 100 mM Tris buffer and analyzed by LC-MS (FIG. 53, Table 8).

[3] = target: T1, Trastuzumab; experiment: as above; details: 100 mM HEPES pH8.7; large scale reaction for entry 15, room temperature, 24 h; remark: listed apart in the source
[4] = 100 mM HEPES pH8.5, trastuzumab 10 uM, reagent 200 uM, room temperature
[5] = 100 mM phosphate pH7.2, trastuzumab 10 uM, reagent 200 uM, room temperature
[6] = 20 mM HEPES pH8.5, 37° C., 8 equivalents of the reagent
[7] = 20 mM HEPES pH8.5 with 200 mM NaCl, reagent 200 uM, room temperature
[8] = 20 mM phosphate pH7.2, reagent 200 uM, room temperature
[9] = 100 mM HEPES pH8.7, large scale reaction, room temperature

T1 sequence (P01857 with tags, fused parts or gaps isoform P01857-1 D239E/L241M, other chains not shown): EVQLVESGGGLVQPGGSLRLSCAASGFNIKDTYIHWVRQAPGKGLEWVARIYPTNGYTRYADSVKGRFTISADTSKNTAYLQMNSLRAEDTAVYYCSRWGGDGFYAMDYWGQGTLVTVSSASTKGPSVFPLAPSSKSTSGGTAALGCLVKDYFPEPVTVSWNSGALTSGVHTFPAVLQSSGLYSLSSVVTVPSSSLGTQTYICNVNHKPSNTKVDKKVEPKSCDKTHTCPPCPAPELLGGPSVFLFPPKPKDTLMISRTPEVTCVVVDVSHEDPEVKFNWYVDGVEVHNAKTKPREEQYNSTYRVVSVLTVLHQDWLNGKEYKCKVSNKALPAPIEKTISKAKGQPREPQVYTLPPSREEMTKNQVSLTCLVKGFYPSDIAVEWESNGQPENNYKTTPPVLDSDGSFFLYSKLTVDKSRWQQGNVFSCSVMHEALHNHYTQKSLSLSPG

Row | Substance | Heavy chain total conversion [1, 4] | Light chain total conversion [1, 4] | Heavy chain total conversion [1, 5] | Light chain total conversion [1, 5] | Heavy chain total conversion ratio (+1/+2/+3) [1, 4] | other results
1 | 01 (FNMQQQRRFYEALHDPNLNCEQRNAKIKSIRDD; linkage structure for IgG conjugation) [compound 01] | 77% | <1% | 49% | <1% |  | 
2 | 02 (FNMQQQRRFYEALHDPNLNCEQRNAKIKSIRDD; electrophile linker attached) [compound 02] |  |  |  |  |  | Heavy chain total conversion [1, 6]: 50%; Light chain total conversion [1, 6]: 20%
3 | 03 (FNMQQQRRFYEALHDPNLNCEQRNAKIKSIRDD; electrophile linker attached) [compound 03] |  |  |  |  |  | Heavy chain total conversion [1, 7]: 81%; Light chain total conversion [1, 7]: <1%
4 | 04 (FNMQQQRRFYEALHDPNLNCEQRNAKIKSIRDD; electrophile linker attached) [compound 04] | 49% | <1% |  |  |  | Heavy chain total conversion [1, 8]: 37%; Light chain total conversion [1, 8]: <1%
5 | 05 (FNMQQQRRFYEALHDPNLNCEQRNAKIKSIRDD; homocysteine; electrophile linker attached; MOD_RES 20 homocysteine) [compound 05] | 95%< | <1% | 97% | <1% |  | 
6 | 06 (FNMQQQRRFYEALHDPNLNCEQRNAKIKSIRDD; homocysteine; electrophile linker attached; MOD_RES 20 homocysteine) [compound 06] | 95%< | <1% | 88% | <1% |  | 
7 | 07 (FNMQQQRRFYEALHDPNLNCEQRNAKIKSIRDD; homocysteine; electrophile linker attached; MOD_RES 20 homocysteine) [compound 07] | 89% | <1% | 17% | <1% |  | 
8 | 08 (FNMQQQRRFYEALHDPNLNCEQRNAKIKSIRDD; homocysteine; electrophile linker attached; MOD_RES 20 homocysteine) [compound 08] | 89% | <1% | 17% | <1% |  | 
9 | 09 (FNMQQQRRFYEALHDPNLNCEQRNAKIKSIRDD; N-terminal 5-azido-pentanoyl; homocysteine; electrophile; MOD_RES 20 homocysteine) [compound 09] |  |  |  |  |  | Light chain total conversion [2]: <1%; Heavy chain total conversion [1, 9]: 95%<; Light chain total conversion [1, 9]: <1%; Heavy chain total conversion [3]: 95%
10 | 10 (CFNMQQQRRFYEALHDPNLNEEQRNAKIKSIRDD; electrophile linker attached) [compound 10] |  | <1% |  | <1% | 90/10/0 | Heavy chain total conversion ratio (+1/+2/+3) [1, 5]: 100/0/0
11 | 12 (FNMQQQRRFYEALHDPCLNEEQRNAKIKSIRDD; electrophile linker attached) [compound 12] |  | <1% |  | <1% | 100/0/0 | Heavy chain total conversion ratio (+1/+2/+3) [1, 5]: 100/0/0
12 | 13 (FNMQQQRRFYEALHDPNLNECQRNAKIKSIRDD; electrophile linker attached) [compound 13] |  | <1% |  | <1% | 100/0/0 | Heavy chain total conversion ratio (+1/+2/+3) [1, 5]: 100/0/0
13 | 14 (FNMQQQRRFYEALHDPNLNEEQRCAKIKSIRDD; electrophile linker attached) [compound 14] |  | <1% |  | <1% | 100/0/0 | Heavy chain total conversion ratio (+1/+2/+3) [1, 5]: 100/0/0
14 | 15 (FNMQQQRRFYEALHDPNLNEEQRNAKIKSICDD; electrophile linker attached) [compound 15] |  | <1% |  | <1% | 100/0/0 | 
